Source: the supplement of paper PMC3334620
The full ranking holds about 33,000 sequences; the median of “E-score (-0.5 to 0.5)” is about -0.01, and the highest 2% start at about 0.26. The list shows a part of the results.

molecular target: Ste12 (UniProt P13574); experiment: PBM E-score (8-mer binding enrichment) (E-score (-0.5 to 0.5)); higher = stronger / more preferred TF binding; most listed sequences are background and not binding sites; settings: protein concentration: 200 nM; construct: GST-DNA-binding domain
Protocol: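 Universal 'all 10-mer' protein binding microarrays (Agilent AMADID 015681) probed with GST-tagged S. cerevisiae TFs (full-length or DBD) made by in vitro transcription/translation (PURExpress), about 100-200 nM. Bound TF was detected with fluorescent anti-GST. Each ungapped 8-mer (which stands for itself and its reverse complement) is scored by the PBM enrichment score (E-score), a modified Wilcoxon-Mann-Whitney statistic from -0.5 to +0.5, computed with the Universal PBM Analysis Suite. Scale: above 0.35 generally sequence-specific binding.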

Sequence | PBM E-score
ATCCGAGA | 0.0742
CACGACCA | -0.178
CTACCTGC | 0.00011
GGCGGGGA | 0.407
CCGATCTA | -0.0821
ACAGTGGT | -0.153
GGCCTAAA | -0.0441
ACAGACAG | 0.165
ACCAGTGG | -0.096
ACTGTCGA | -0.0928
GACGTCGA | 0.0215
ATCCTTTC | -0.0183
AGTAGCGG | -0.123
GAATGCCA | -0.041
CGAAACGC | 0.248
AGTTGCTC | -0.232
CGGTTACC | -0.00816
GCGTCAAA | 0.203
ACACGCGT | 0.118
AAAACTTT | 0.249
AACGGCCA | -0.0659
CACTGGTC | -0.186
AAATGACC | 0.0477
GCAACGCC | -0.0303
ATATTAAG | 0.109

Sequence | PBM E-score
CCTTGGAC | -0.0997
CTTAGTGC | -0.101
GGGGACAC | -0.247
AGCAAGCG | 0.0225
GAAGGCAC | -0.0106
GGCAGCCC | -0.142
CCATGTCA | -0.129
GTATACAC | -0.116
CCTGAACC | -0.0988
AGCCGGAG | 0.15
AGGATCGA | -0.062
ACAGGCAT | -0.115
CTTGGAAA | 0.18
CCCGCTTC | -0.0169
GTTAAAAA | 0.291
ATCAATTC | 0.0349
ACCAGCCT | -0.0675
GCTTGTCC | -0.223
CCAGCGAG | 0.0375
AAGCCTAC | -0.165
AGGAGGAT | -0.0278
CACCGGGC | -0.084
GGGGGTGA | -0.159
AACCCACT | 0.0618
GTGTCCGA | -0.0926

Sequence | PBM E-score
AAGACCTT | 0.0345
ATTCCGTC | -0.0186
TGTCCAAA | 0.135
GTTGCGCA | -0.22
TCTTGCAA | 0.224
ATATTTTA | 0.235
CGAGTATA | 0.12
ACATATGC | -0.151
CGCTAACA | 0.00748
CGAAATCC | 0.132
TGGAGTAA | 0.144
CCCAGGGA | -0.184
AACAGCCT | 0.00024
ATCCTGAC | -0.0029
AGCACTGA | 0.0589
ACGTTATC | -0.111
GCCACCGA | -0.181
AGACCGAC | 0.126
ACTTGCGA | -0.0121
AAGTATAT | 0.146
ACAAGCCC | -0.165
CCGGACCA | -0.0561
AGCTTCCG | -0.0505
CCATGTCG | -0.0907
CGAATTAA | 0.23

Sequence | PBM E-score
AAACGTGC | 0.034
ATGGCGTC | -0.0126
AGTTTATA | 0.218
CCCATAAC | -0.0172
ACTGCGCA | 0.0963
AATTACTG | 0.0213
ACCCCATC | 0.1
ACAGTTGA | -0.0793
CATGGACC | -0.0637
AGGTAAAG | 0.206
ATCAGTAG | 0.0301
ATCCGACC | -0.0493
GTTTAAAC | 0.214
ACAGGACG | -0.0545
GTAAGGAC | -0.0274
GTAACGGA | 0.143
AAGAGCTT | -0.0673
AGGTCTGC | -0.057
ATAGAAAC | 0.189
AACGTATC | -0.0234
CCGGTACC | -0.188
AACTGGAG | -0.0915
CTTACTCA | 0.0446
AGCTCAAT | -0.103
AGTAGAGC | -0.222

Sequence | PBM E-score
GTGCGGTA | 0.0253
CCAGCAGG | -0.107
ACAGGAGC | -0.14
AACCTCTA | 0.0864
CTGTTTTC | 0.0946
AGGTTGAG | -0.113
TGTCCGAA | 0.0419
ATAATGAC | -0.141
CTGCGCCA | 0.0695
AACTTCGC | -0.0676
TATGACCA | 0.00859
CGTGTAAG | -0.0021
CCCAGGAC | -0.0934
GATTCCAA | 0.105
GCGTGCCA | -0.167
ATACTATC | -0.00574
CCTCCGTC | -0.144
GAAGTGTA | -0.0683
AGTAGACG | -0.0195
ACGCTATC | 0.0237
AATACTAC | 0.155
ACATGTAC | 0.0233
CGCATTTC | 0.191
CTCTGACC | -0.142
CTTCTGTC | -0.0575

Sequence | PBM E-score
ACGGTCAT | 0.0396
CGGGAAAG | -0.0256
CATCGCTA | 0.0271
TGTAAACA | 0.087
CCGGAAAG | 0.0177
ATAACGCA | 0.0717
GTAGGTAA | -0.0385
TAACCACA | 0.128
AAACTAAA | 0.198
ACAGCTAC | -0.251
CTAATGTA | 0.0302
GAAGAAAC | 0.122
GGCTAACC | -0.248
GCTCGTCA | -0.0995
ATAGACCC | -0.0698
CAGTCGAC | 0.0155
AGTCTGTA | -0.0964
GAGCCCGC | -0.0842
ATCGCATC | 0.0632
GGCTCCAA | -0.128
AGAGTGGC | -0.116
GATGAAGA | 0.106
GGACGTAA | 0.0473
GGGAACTA | 0.129
CACGGAGC | -0.0246

Sequence | PBM E-score
CCAAATCA | 0.0372
ACGGATGC | -0.1
TGGATCAA | 0.0257
GCATACCA | -0.196
ACCCCCGA | 0.0557
ACCCATGA | -0.107
CCAATAAC | 0.0212
GCGACGTA | 0.146
ACCGCGAA | -0.0549
CATACCCC | 0.205
GTTATCAA | 0.05
CTTACTGC | 0.0555
ACCGGCTG | -0.121
CAAGCTTC | -0.106
ACGGAACA | 0.099
CGACACGC | 0.0301
AATAGCTC | -0.0636
ATCGATCG | -0.0157
ATGATGGA | 0.00896
ATCAGCGA | 0.146
CTTATGGA | -0.0137
AACGTGAA | 0.132
